{
  "source": "patent US8536307B2",
  "about": "“Anticalins” (Pieris AG, priority 1997, dated 2013)",
  "biological_target": "biotinylated synthetic hepatitis C-peptide epitope, peptide fragment no. 59 from the surface protein NS4 of HCV (SEQ ID NO:13) (Hepatitis C virus genotype 1a, UniProt P27958)",
  "experiment": "Sandwich-ELISA for detection of hepatitis C peptide epitope",
  "settings": "periplasmic protein extract, ligand 1 μM, absorption at 405 nm as dA/dt",
  "data": [
    {"molecule": "Bbp: Recombinant bilin-binding protein from Pieris brassicae (modified, encoded on pBBP21/pBBP22), produced as a control (protein, left off: small tags and cut ends) DVYHDGACPEVKPVDNFDWSQYHGKWWEVAKYPNSVEKYGKCGWAEYTPEGKSVKVSNYHVIHGKEYFIEGTAYPVGDSKIGKIYHSLTYGGVTKENVFNVLSTDNKNYIIGYYCKYDEDKKGHQDFVWVLSRSMVLTGEAKTAVENYLIGSPVVDSQKLVYSDFSEAACKVNNLAEAKVLANRELDKYGVSDYYKNLINNAKTVEGVKALIDEILAALP", "values": [
      {"measurement": "binding signal in sandwich-ELISA", "result": "only low signals were detectable"}
    ]}
  ]
}
